Reference: PubChem BioAssay AID624417 (National Center for Advancing Translational Sciences (NCATS), 2012)
Hit rate of the full screen: of about 410,000 compounds, about 6,400 (1.6%) were called active. Inconclusive results, whose numbers are uncertain, are shown with a selection of clear calls. The call rests on the fitted dose curve; in most records, active means well fitted inhibition curve with a large enough effect; inconclusive means small, poorly fitted or top-dose-only effect; inactive means no such curve, though single readings can be large or run the other way. Potencies of inconclusive entries are left out as doubtful fits.

target: Glucagon-like peptide 1 receptor (Homo sapiens) (UniProt P43220); assay: qHTS of GLP-1 Receptor Inverse Agonists (Inhibition Mode); details: HEK293 GLP-1R CRE-luciferase, luminescence, 24 h, GLP-1R form is constitutively active; activity change, negative = inhibition: at 38.3 µM (top of the series) unless noted; further: nearly all actives have a fitted effect of over 55% in size
Summary of the method: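 Using stably transfected HEK293 (constitutively active GLP-1R, cAMP-luciferase reporter), compounds were incubated 24 hr and luciferase measured by luminescence.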
On the % scale 0 is the no-effect control and ±100 the full control effect; potency means the concentration at half of the fitted maximal effect; tags describe the fitted curve by direction and shape.

Chain of UniProt P43220 (P43220 whole entry, looked up): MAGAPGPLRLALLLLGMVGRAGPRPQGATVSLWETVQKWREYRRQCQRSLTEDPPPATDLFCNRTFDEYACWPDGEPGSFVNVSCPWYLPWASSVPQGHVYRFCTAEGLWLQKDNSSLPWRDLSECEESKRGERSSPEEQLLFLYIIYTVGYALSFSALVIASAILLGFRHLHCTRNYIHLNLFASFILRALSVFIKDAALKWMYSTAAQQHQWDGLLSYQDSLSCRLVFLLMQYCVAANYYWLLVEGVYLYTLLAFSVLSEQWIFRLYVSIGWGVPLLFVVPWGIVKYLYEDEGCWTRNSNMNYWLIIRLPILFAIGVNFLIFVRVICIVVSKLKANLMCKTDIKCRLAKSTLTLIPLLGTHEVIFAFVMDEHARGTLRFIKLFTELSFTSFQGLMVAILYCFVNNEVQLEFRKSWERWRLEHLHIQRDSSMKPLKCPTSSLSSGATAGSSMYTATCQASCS

Row | Structure (SMILES) | Potency | activity change, negative = inhibition
1 | CC(C)CCNC(=O)C(c1ccco1)N(Cc1ccccc1)C(=O)c1snc(C(N)=O)c1N (stereo not drawn) | inconclusive [inhibitor, single point] | 
2 | Cc1ccc(CNC(=O)C2CCN(Cc3nc(-c4cccc(Br)c4)oc3C)CC2)cc1 | inactive | 
3 | COc1ccccc1CCC(=O)NCCCn1ccc2ccccc21 | inconclusive [inhibitor, single point] | 
4 | CC(=O)Nc1ccc(S(=O)(=O)NNC(=S)NCc2ccco2)cc1 | inconclusive [inhibitor, full curve, poor fit] | 
5 | Cc1cccc(-n2c(=O)c3ccccc3n(Cc3ccccc3)c2=O)c1 | inconclusive [inhibitor, partial curve, poor fit] | 
6 | CC1CCC(C(C)C)C(OCC(O)CN2CCCC(C)C2)C1 (stereo not drawn) | active: 8.91 µM | 
7 | Cc1ccc(S(=O)(=O)Nc2ccc(N3CCN(C)CC3)nc2)cc1 | inconclusive [inhibitor, single point] | 
8 | CCOc1cc(C)c(Cl)cc1S(=O)(=O)N1CCCC1 | inconclusive [inhibitor, single point] | 
9 | Cc1cc(C)cc(NC(=S)NC(=O)CCN2C(=O)c3ccccc3C2=O)c1 | inactive | 
10 | CCn1c(S(=O)(=O)O)nc2ccccc21 | inconclusive [inhibitor, full curve, poor fit] | 
11 | CCCNC(=O)Nc1nc2ccccc2s1 | inconclusive [inhibitor, single point] | 
12 | COc1c(OC)c(O)c2c(=O)cc(-c3c(O)cccc3O)oc2c1OC | inactive | 
13 | COc1ccc(N(CC(=O)Nc2cc(C)ccc2C)S(=O)(=O)c2c(C)noc2C)cc1 | inconclusive [inhibitor, partial curve] | 
14 | Cc1cc(C)cc(NS(=O)(=O)Cc2ccccc2)c1 | inconclusive [inhibitor, partial curve, poor fit] | 
15 | COc1cc2c(cc1OC)C(C)N(C(=O)c1cc3c(C)cc(C)cc3[nH]1)CC2 (stereo not drawn) | inconclusive [inhibitor, partial curve, poor fit] | 
16 | COc1ccc(OC)c(NC(=O)c2cc(C3CC3)nc3c2c(C)nn3-c2ccc(C)cc2)c1 | inactive | 
17 | COc1ccc(-c2c(C)nn3c(C(F)(F)F)cc(-c4ccccc4)nc23)cc1 | inactive | 
18 | CCC(=O)N1CCc2cc(S(=O)(=O)CCC(=O)NC3CCCCC3)ccc21 | inactive | 
19 | CC(C)Oc1ccc(CNC(=O)c2cc(S(=O)(=O)N3CCOCC3)cn2C)cc1 | inconclusive [inhibitor, partial curve, poor fit] | 
20 | Cc1ccc(S(=O)(=O)N2CCCC(C(=O)N(Cc3cccs3)C3CC3)C2)cc1 (stereo not drawn) | inconclusive [inhibitor, partial curve, poor fit] | 
21 | COc1ccc(CN(Cc2cccn2C)C(=O)c2cc3cc(OC)ccc3[nH]2)cc1 | inconclusive [inhibitor, partial curve, poor fit] | 

Row | Structure (SMILES) | Potency | activity change, negative = inhibition
22 | O=C(NCc1ccco1)c1ccc2c(c1)N(Cc1c(F)cccc1Cl)C(=O)c1ccccc1S2 | inconclusive [inhibitor, partial curve, poor fit] | 
23 | CC(Sc1nc(-c2ccccc2)cc(C(F)(F)F)n1)C(=O)NCc1ccco1 (stereo not drawn) | inconclusive [inhibitor, partial curve, poor fit] | 
24 | Cc1ccc(/C=N/NC(=O)CCSc2ccccc2)cc1 | inconclusive [inhibitor, single point] | 
25 | OC(c1cc(F)cc(Cl)c1)c1ncc(-c2cccc(C(F)(F)F)c2)[nH]1 (stereo not drawn) | inconclusive [inhibitor, partial curve, poor fit] | 
26 | O=C(Nc1ccc(Br)cc1)Nc1ccccc1F | inconclusive [inhibitor, single point] | 
27 | CC(C)c1ccccc1NC(=O)COc1ccc(C(=O)NCCc2ccccc2)cc1 | inconclusive [inhibitor, partial curve, poor fit] | 
28 | CSc1nc(SCCN(C)C)c2c3c(sc2n1)COC(C)(C)C3 | inconclusive [inhibitor, single point] | 
29 | CCC1(c2ccccc2)NC(=O)N(CC(=O)Nc2cc(Cl)ccc2N2CCOCC2)C1=O (stereo not drawn) | inconclusive [inhibitor, single point] | 
30 | NC(=O)c1ccsc1NC(=O)c1nc(-c2ccccc2)n(-c2ccccc2)n1 | inactive | 
31 | Cc1ccc(S(=O)(=O)N(C)Cc2nc(-c3ccccc3)oc2C)cc1 | inconclusive [inhibitor, single point] | 
32 | O=C(CSc1nnc(COc2ccc(Cl)cc2)o1)N(c1ccccc1)C1CCS(=O)(=O)C1 (stereo not drawn) | inconclusive [inhibitor, partial curve, poor fit] | 
33 | COc1ccc(Cn2ccc3nc(C)c(C(=O)N4CCN(c5ccc(OC)cc5)CC4)cc3c2=O)cc1 | inactive | 
34 | CCOc1ccccc1NC(=O)Cn1nnc(C(=O)NCc2ccc(F)cc2)c1N | inconclusive [inhibitor, partial curve, poor fit] | 
35 | CC(CCc1ccccc1)NC(=O)C1CCN(S(=O)(=O)N2CCCCC2)CC1 (stereo not drawn) | inconclusive [inhibitor, full curve] | 
36 | O=[N+]([O-])c1ccc(NC(=S)N2CCc3ccccc32)cc1 | inconclusive [inhibitor, partial curve, poor fit] | 
37 | COC(=O)C1=C(C(=O)OC)[C@@H]2N(C)c3ccc(OC)cc3[C@@]23C[C@@H](C(=O)OC)N(C(=O)c2ccc(Br)cc2)C3=N1 | inconclusive [inhibitor, partial curve, poor fit] | 
38 | Cc1ccc(N2C(=O)N(CC(=O)NC(c3ccccc3)c3ccccc3)C(=O)C2C)cc1 (stereo not drawn) | inconclusive [inhibitor, single point] | 
39 | CCc1ccc(CNC(=O)c2cc3c(=O)n(Cc4cccs4)ccc3nc2C)cc1 | inconclusive [inhibitor, single point] | 
40 | CC(C)(Oc1ccc(Cl)cc1)C(=O)NCCN1C(=O)S/C(=C/c2cccnc2)C1=O | inconclusive [inhibitor, single point] | 
41 | NC(Cc1ccc(Cl)cc1)c1csc(Nc2nccc(C(F)(F)F)n2)n1 (stereo not drawn) | inconclusive [inhibitor, single point] | 
42 | CCC(=O)N1CCN(c2ccc(NC(=S)NC(=O)c3ccc(OC)c([N+](=O)[O-])c3)cc2)CC1 | inconclusive [inhibitor, single point] | 

Row | Structure (SMILES) | Potency | activity change, negative = inhibition
43 | COc1ccc(-c2csc3ncnc(N4CCN(S(=O)(=O)c5ccc(C(C)=O)cc5)CC4)c23)cc1 | inconclusive [inhibitor, single point] | 
44 | CC(=O)Nc1cc(NC(C)=O)c(N=Nc2ccccc2)cc1C | inactive | 
45 | O=C(c1ccccc1)N(C(=O)c1ccccc1)N1CCCC1 | active: 10 µM | 
46 | O=C(NCc1ccc2c(c1)OCO2)c1cc(-c2ccccc2)c(N2CCOCC2)s1 | inconclusive [inhibitor, single point] | 
47 | O=C(N/N=C/c1c[nH]c2ccccc12)C1CC1(c1ccccc1)c1ccccc1 (stereo not drawn) | active: 4.47 µM | 
48 | Cc1ccc(-n2cc(C(C)(C)C)[nH]c2=S)cc1 | inconclusive [inhibitor, single point] | 
49 | CC(C)(C)c1ccc(C(=O)NCc2ccccc2)cc1 | inconclusive [inhibitor, partial curve, poor fit] | 
50 | COc1ccc(CCNC(=O)CCc2ccc(OC)cc2)cc1 | inactive | 
51 | CC1(C)CC(c2nc(-c3ccc(Cl)cc3)cs2)CCS1 (stereo not drawn) | inconclusive [inhibitor, partial curve, poor fit] | 
52 | CC1CCn2c(nc3cc(C(=O)NCc4ccc(OC(C)C)cc4)ccc32)C1 (stereo not drawn) | inactive | 
53 | Cc1ccc(C(=O)Nc2ccccc2C(=O)NCc2ccco2)cc1S(=O)(=O)N1CCCCC1 | inconclusive [inhibitor, partial curve] | 
54 | COc1ccc(Cn2c(=S)[nH]c3cc(C(=O)NCCCN4CCOCC4)ccc3c2=O)cc1 | inconclusive [inhibitor, partial curve, poor fit] | 
55 | COc1ccc(C(=O)N2CCCC(C)(C(=O)NS(=O)(=O)C3CC3)C2)cc1 (stereo not drawn) | inactive | 
56 | Cc1cc(N=Nc2ccccc2)c(NCC(O)C(O)C(O)CO)cc1C (stereo not drawn) | inconclusive [inhibitor, single point] | 
57 | Cn1cc(C(=O)N/N=C/c2ccc3c(c2)OCO3)c2ccccc21 | inconclusive [inhibitor, partial curve, poor fit] | 
58 | CCSc1nc2sc3c(c2c(=O)n1-c1ccccc1C)CCN(C)C3 |  | inconclusive: -62.1% [inhibitor]
59 | COc1ccccc1N1CCN(/N=C/C=C\c2ccco2)CC1 | inconclusive [inhibitor, single point] | 
60 | O=C(NC12CC3CC(CC(C3)C1)C2)c1ccccc1 | inconclusive [inhibitor, partial curve, poor fit] | 
61 | Cc1ccc(S(=O)(=O)N2CCC(C(=O)NCC(C)(C)N3CCOCC3)CC2)c(C)c1 | inconclusive [inhibitor, partial curve, poor fit] | 
62 | CC(C)[C@H](NC(=O)c1ccc([N+](=O)[O-])cc1Cl)C(=O)N1CCN(C/C=C/c2ccccc2)CC1 | active: 10 µM | 
63 | COc1ccc(S(=O)(=O)N2CCOCC2)cc1NC(=O)COc1cccnc1[N+](=O)[O-] | inactive | 
